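All cell lines were grown in 96-well plates and treated with compound for 48 hours. Abbreviation: GI50, concentration required for 50% inhibition of growth. TGI denotes the concentration required for complete inhibition of growth.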
Test system: NCI-H322M lung
Assay: NCI-60 cell line screen, 48 h

| Compound | GI50 | TGI |
| --- | --- | --- |
| C=C1CCC2C3(C)COC(c4cc(F)cc(F)c4)OC3CCC2(C)C1C/C=C1/C(=O)OCC1O (stereo unspecified) | 2.83 µM | 10.5 µM |
| O=C(OCCOCCO)N(c1cccc(Br)c1)c1nc(SCCN2CCOCC2)nc2c1cnn2CC(Cl)c1ccc(Br)cc1 (stereo unspecified) | 11.8 µM | > 100 µM |
| O=C(NN1C(=O)/C(=C/C=C/c2ccc([N+](=O)[O-])o2)SC1=S)c1ccc(Cl)cc1 | 1.72 µM | 3.45 µM |

Reference: PubChem BioAssay (NCI)
